This list was built around the results that the source calls inconclusive (neither active nor inactive); the mix of calls is not that of the screen. Where the call is inconclusive, the potency comes from a doubtful curve fit. Calls of active or inactive are those of the source. Calls come from the whole dose curve; as a rule, active = well fitted activation curve with a large enough effect in the main read-out, with a control signal flat (not every such curve was filed as active); inconclusive = small, poorly fitted or top-dose-only effect, or effect the other way, or a change in a side signal; inactive = flat fitted curve, though single readings scatter.
Biological target: 3',5'-cyclic-AMP phosphodiesterase 4B (Homo sapiens) (UniProt Q07343)
Test: qHTS Assay for Inhibitors of PDE-IV (AID 607)
Conditions: HEK293 ACTOne CNG channel cells, membrane potential fluorescence; series mostly up to 22.9 µM
Outline: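 The readout is membrane depolarisation from a cAMP-sensing CNG channel, detected with a potential dye at ex 535/em 590. Cells were HEK293-derived (endogenous PDE-IV) at 1000 cells/well, titrated up to 22.9 uM final.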
Potency is the fitted concentration of half-maximal effect; tags give direction and shape of the fitted curve.

Chain of UniProt Q07343 (Q07343 whole entry, looked up): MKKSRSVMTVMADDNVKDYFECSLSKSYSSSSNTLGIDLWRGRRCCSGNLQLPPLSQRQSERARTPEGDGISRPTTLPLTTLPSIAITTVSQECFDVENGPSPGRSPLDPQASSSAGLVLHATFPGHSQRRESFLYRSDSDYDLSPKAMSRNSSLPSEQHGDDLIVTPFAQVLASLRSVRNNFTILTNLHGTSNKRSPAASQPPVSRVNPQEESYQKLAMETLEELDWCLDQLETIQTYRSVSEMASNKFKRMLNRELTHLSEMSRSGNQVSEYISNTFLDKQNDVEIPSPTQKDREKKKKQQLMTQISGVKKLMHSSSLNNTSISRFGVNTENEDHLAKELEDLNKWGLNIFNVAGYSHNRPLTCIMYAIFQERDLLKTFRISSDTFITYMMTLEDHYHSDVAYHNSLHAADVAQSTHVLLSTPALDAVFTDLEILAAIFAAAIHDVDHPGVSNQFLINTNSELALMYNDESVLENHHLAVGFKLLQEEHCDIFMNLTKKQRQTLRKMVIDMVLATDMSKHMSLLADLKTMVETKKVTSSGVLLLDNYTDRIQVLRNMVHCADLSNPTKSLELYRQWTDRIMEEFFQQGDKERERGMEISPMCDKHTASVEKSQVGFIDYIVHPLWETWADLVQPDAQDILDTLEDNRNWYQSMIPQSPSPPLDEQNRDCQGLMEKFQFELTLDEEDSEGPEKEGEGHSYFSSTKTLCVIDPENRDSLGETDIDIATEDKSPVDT

SMILES	Potency
CC(=O)Oc1ccccc1C(=O)Oc1ccccc1C(=O)O	inconclusive: 6 µM [activator, partial curve, poor fit]
CCCC[C@@H]1C[C@H]1C(NC(=O)c1ccco1)c1ccc(-c2ccccc2)cc1 (some centres not stated)	inconclusive: 7.94 µM [activator, single point]
CC(C)C[C@H](NC(=O)[C@@H](NC(=O)N[C@@H](Cc1ccccc1)C(=O)O)[C@H]1CCN=C(N)N1)C(=O)N[C@H](C=O)Cc1ccccc1	inconclusive: 19 µM [inhibitor, single point]
CCc1c2c(nc3ccc(OC)cc13)OC(CC)C2 (configuration not stated)	inconclusive: 6.31 µM [activator, partial curve]
CN(C)c1ncc2ncc(=O)n(CCC#N)c2n1	inconclusive: 1.26 µM [activator, full curve]
COC(=O)[C@@]1(Cc2ccccc2)[C@H]2c3cc(C(=O)N(C)C)n(Cc4ccsc4Br)c3C[C@H]2CN1C(=O)c1ccccc1	inactive
O=C(O)CC1(CC(=O)O)Nc2ccccc2SC1=O	inactive
COc1ccc(NC(=O)N2CC[C@@]3(CCCNC3)C2)cc1	inactive
COC(=O)N1CCC[C@@]2(CCN(C(=O)NC(C)C)C2)C1	inactive
CN(N=O)c1ccc(/C=C\c2ccnc3ccccc23)cc1	inconclusive: 1.58 µM [inhibitor, partial curve]
Cc1ccccc1-c1cncnc1Nc1ccccc1	inconclusive: 10 µM [activator, partial curve]
N[C@@H](CSCc1ccccc1)C(=O)O	inactive

From PubChem BioAssay (NCATS)
